Test results from PubChem BioAssay AID1159614 (National Center for Advancing Translational Sciences (NCATS), 2016).
Hit rate of the full screen: of about 45,000 compounds, about 65 (0.1%) were called active. The call rests on the fitted dose curve; in most records, active means well fitted activation curve with a large enough effect; inconclusive means small, poorly fitted or top-dose-only effect; inactive means no such curve, though single readings can be large or run the other way. Some of the results follow.

The compounds below were run against Galactocerebrosidase (Homo sapiens) (UniProt P54803) (assay: A Novel Cell-Based Assay to Identify Small Molecules for B -Galactocerebrosidase). Conditions: 145M-Twi-hGALC-G270D cells (Twitcher mouse brain line with human GALC G270D), HMU-beta-Gal fluorescence, 48 h; series mostly up to 57.5 µM; activation: at the top concentration.
Sequence of UniProt P54803 (P54803 whole entry, looked up): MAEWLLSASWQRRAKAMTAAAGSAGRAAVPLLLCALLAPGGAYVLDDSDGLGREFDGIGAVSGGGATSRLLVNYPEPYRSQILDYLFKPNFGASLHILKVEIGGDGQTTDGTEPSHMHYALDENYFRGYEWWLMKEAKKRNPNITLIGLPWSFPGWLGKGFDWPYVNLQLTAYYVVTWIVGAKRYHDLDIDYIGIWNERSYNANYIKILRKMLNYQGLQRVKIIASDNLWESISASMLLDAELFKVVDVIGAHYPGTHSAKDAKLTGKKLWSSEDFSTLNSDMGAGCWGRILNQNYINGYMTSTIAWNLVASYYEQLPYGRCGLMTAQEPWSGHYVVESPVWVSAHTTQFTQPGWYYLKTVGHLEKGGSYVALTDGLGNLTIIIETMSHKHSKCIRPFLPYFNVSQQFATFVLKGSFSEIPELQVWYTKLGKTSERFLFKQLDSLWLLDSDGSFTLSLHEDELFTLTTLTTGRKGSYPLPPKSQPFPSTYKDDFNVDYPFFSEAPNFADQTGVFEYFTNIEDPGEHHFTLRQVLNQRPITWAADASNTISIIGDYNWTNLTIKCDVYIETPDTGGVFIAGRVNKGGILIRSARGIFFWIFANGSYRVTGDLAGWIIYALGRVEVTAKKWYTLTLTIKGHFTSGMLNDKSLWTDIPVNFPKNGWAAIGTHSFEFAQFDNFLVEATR
In short: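 Live 145M-Twi cells (Twitcher mouse brain-derived, GALC-null) stably expressing human GALC-G270D, with a wild-type GALC line, were compound-treated. Residual GALC activity was then read as fluorescence from 0.1 mM final HMU-β-gal at pH 5.2; higher signal means activation.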
Further: 0% is about no effect; nearly all actives have a fitted effect of over 65% in size.

activation, inactive:
Cc1ccc(CSCc2ccc(C(=O)NCCc3ccc(Cl)cc3)o2)cc1 -11.5%
O=c1[nH]c(=O)c2[nH]c(=O)[nH]c2[nH]1 -11% [at 11.5 µM]
CC(C)Oc1ccc(CNC(=O)CN2C(=O)CCc3cc(S(=O)(=O)N4CCCCC4)ccc32)cc1 1.75%
Cc1cc(C)cc(N2C(=O)CSC23C(=O)N(CC(=O)NCCc2ccccc2)c2ccccc23)c1 (configuration not stated) -12.3%
O=C(CSC1=Nc2ccccc2N=C(c2ccc(F)cc2)C1)NCc1ccc(F)cc1 2.37%
Cc1ccc(C)c(CN2C(=O)CSc3ccc(C(=O)NCc4ccc(F)cc4)cc32)c1 -7.56%
COc1ccccc1NCc1cccn1-c1nnc(N2CCOCC2)s1 -20.5%
Cc1oc2ncn(C)c(=O)c2c1C(=O)NC(C)c1ccccc1 (configuration not stated) -6.27%
COc1ccc(N2CCN(C(CNC(=O)C(=O)NCCCN(C)C)c3cccnc3)CC2)cc1 (configuration not stated) -9%
CCOc1c(Cl)cc(Cl)cc1CNCCSc1nnnn1C 4.71%
Cc1ccc(CSc2nc3cccnc3n2Cc2ccc(C(=O)NCCc3ccccc3)cc2)cc1 -9.53%
CCC(=O)N1c2nc(-c3ccco3)nn2C2(CCCCC2)[C@@H]2CCCC[C@@H]21 -18.5%
CCS(=O)(=O)N1CCc2cc(C(=O)Nc3cccc(Cl)c3C)ccc21 -17.7%
Cc1nc2c(-c3ccccc3)c(C)nn2c(C)c1CCC(=O)NCc1ccccc1Cl -1.43%
O=C(Nc1cc2c(cc1C(=O)c1ccccc1Cl)OCCO2)c1ccc(Br)cc1 -3.11%
COc1ccc(-c2cn3nc(N4CCCC(C(=O)Nc5ccc(C)c(C)c5)C4)sc3n2)cc1 (configuration not stated) -12.5%
FC(F)(F)c1cc(-c2ccccc2)nc2cc(-c3ccc(Br)cc3)nn12 -8.09%
Cc1ccc(-n2nnnc2CNC(=O)c2ccccc2S(C)(=O)=O)cc1C -16%
CCCn1cc(S(=O)(=O)c2cc(C)ccc2C)c(=O)c2cc(F)c(N3CCOCC3)cc21 -16.1%
COC(=O)c1c(SCC(=O)Nc2cc(C)cc(C)c2)[nH]c2ccccc2c1=O -12.5%
CCc1ccc2occ(CC(=O)Nc3c(C(=O)Nc4ccc(C)cc4)oc4ccccc34)c2c1 -17.9%
O=C(CCC(=O)OCC(=O)c1ccc(Cl)cc1)Nc1ccc(Oc2ccccc2)cc1 -12.3%
Cc1ccc(CSc2nc(-c3cccs3)ccc2C#N)cc1 -8.88%
COc1ccc(-n2nc(C(=O)Nc3ccccc3OC)c3c4ccccc4n(C)c3c2=O)cc1Cl -5.08%
CC(C)c1cnc2c(c1SCC(=O)Nc1ccccc1C(F)(F)F)c(=O)n(C)c(=O)n2C -10.2%
COc1cccc(-c2nn(C)c3sc(C(=O)NCCc4ccc(Cl)cc4)cc23)c1 -15.5%
CCCNc1ncnc2onc(C)c12 -2.28%
Cc1ccc(C(=O)n2nc(C)c(S(=O)(=O)N3CCOCC3)c2C)cc1 5.09%
CCOc1ccc(NC(=O)NCCCN2CCN(c3ccc(F)cc3)CC2)cc1 -14.3%
Cc1nnc(SCc2ccc(Cl)cc2)c2cc3occc3n12 -12.7%
Cc1cccc(N2CCN(c3cc(C)nc4c(-c5ccc(Cl)cc5)c(C)nn34)CC2C)c1 (configuration not stated) -10.4%
Cc1ccccc1S(=O)(=O)Cc1ccc(C(=O)NC2CCCCC2)o1 2.74%
COc1ccc(NC(=O)c2oc3ccccc3c2NC(=O)c2cc3ccccc3o2)cc1 6.11%
COc1ccc2c(c1)CC(NC(=O)Nc1c(C)cc(C)cc1C)CO2 (configuration not stated) -10%
Cc1ccc(OC(=O)c2cc(-c3ccc4c(c3)OCCO4)on2)cc1C -9.4%
CCOc1ccc(NS(=O)(=O)c2ccc3[nH]cc(C(=O)N(C)Cc4ccccc4)c(=O)c3c2)cc1 7.21%
CC(=O)N1CCc2c(sc3c2c(=O)n(-c2ccccc2)c(=O)n3CC(=O)Nc2ccccc2C)C1 -7.24%
COc1ccc(C)cc1S(=O)(=O)N1CCN(c2cccc(Cl)c2)CC1 -40.6%
Cc1cccc(-n2c3nc(=O)[nH]c(=O)c-3cc3c(Cl)cccc32)c1C 1.98%
CCOc1ccc(NC(=O)CSc2nnc3scc(-c4ccc(Cl)cc4)n23)cc1 -13.9%
CCOc1cccc2cc(-c3nc4ccc(C(=O)O)cc4[nH]3)c(=O)oc12 -9.21%
Cc1oc2ncn(CC(C)C)c(=O)c2c1C(=O)NCCCN1CCCCC1 -8.07%
O=C(COc1ccc(F)cc1)Nc1ccc2nc(SCC(=O)N3CCc4ccccc43)sc2c1 -16.6%
COc1ccccc1CNC(=O)c1ccc(N2CCCC2)c(NC(=O)NCCC(C)C)c1 -18%
Cc1cc(C)c(NC(=O)c2cc3sc(Cl)cc3n2C)c(C)c1 -0.544%
COc1cccc(NC(=O)CSc2ncc(S(=O)(=O)c3ccc(C)c(C)c3)c(=O)[nH]2)c1 -13.2%
O=C(NCC(c1ccco1)S(=O)(=O)c1cccs1)c1ccc(F)cc1 (configuration not stated) -5.24%
Cc1ccc(C)c(CN2C(=O)c3ccccc3S(=O)(=O)c3ccc(C(=O)N4CCCCCC4)cc32)c1 9.41%
CCOC(=O)c1ccc2oc(=O)n(Cc3ccccc3)c2c1 -4.27%
CC(=O)Nc1ccc(C2Sc3ccccc3NC3=C2C(=O)c2ccccc23)cc1 (configuration not stated) -5.61%
CCc1c(-c2ccccc2)nc2ccccc2c1C(=O)NCCc1ccccc1 -14.2%
CSc1cccc(NC(=O)Cn2c3ncccc3c(=O)n2-c2ccc(C)cc2)c1 -8.37%
Cc1csc2nc(COc3ccccc3NC(=O)c3ccco3)cc(=O)n12 -6.5%
Cc1ccccc1OCC(=O)OCc1cc(=O)n2nc(C3CCCCC3)sc2n1 -14.6%
CC(=O)c1ccc(N2CCN(S(=O)(=O)c3ccc(-c4cc(C(F)(F)F)on4)s3)CC2)cc1 -15.4%
Cc1ccc2c(=O)cc(C(=O)Nc3cccc(Cl)c3C)oc2c1C -20.8%
COc1cc(NC(=O)CCc2nc(-c3cccs3)no2)cc(OC)c1OC -15.7%
Cc1ccc(C(=O)CC2(O)C(=O)N(CCc3ccccc3)c3ccc(Cl)cc32)cc1 (configuration not stated) 6.16%
Cc1cc(Nc2cccc(C)c2C)n2cnnc2n1 -7.91%
Cn1c(=O)c2c(-c3ccccc3Cl)n(-c3cc(Cl)ccc3O)cc2n(C)c1=O -19.1%
COc1ccc(OCCCCn2c(-c3ccc(Cl)cc3)nc3ccccc3c2=O)cc1 -8.88%
CCCCCOC(=O)CSc1ncnc2c1sc1nc(N3CCOCC3)c3c(c12)CCCC3 -20.8%
CCc1ccc2ncc3c(-c4ccc(F)cc4)nn(CC(=O)NCc4ccccc4)c3c2c1 -15.6%
COc1ccc(CNC(=O)c2c(O)nc3cc(C)ccn3c2=O)cc1 -2.27%
Cc1nc(C)c(-c2ccc(SCC(=O)Nc3ccc(C)c(F)c3)nn2)s1 -14.6%
CCOc1ccc(-c2nc(SCC(=O)Nc3ccc(C)c(C)c3)n3[nH]c(=O)cc3n2)cc1 -23.6%
Cc1ccc(C(C)C)c(OCC(=O)Nc2ccc(C(=O)OC3CCCCC3)cc2)c1 -8.76%
CC(C)CC(C(=O)NCc1ccc(F)cc1)N1Cc2ccccc2C1=O (configuration not stated) -17.1%
COc1ccc(Nc2ncc(C(=O)N3CCN(c4cccc(Cl)c4)CC3)c3ccccc23)cc1 -30.6%
Cc1ccc(C)c(-n2c(CCC(=O)O)ccc2-c2ccc(Cl)cc2)c1 -4.76%
Cc1cccc(NC(=O)CSc2nc(-c3ccccc3)cn2-c2ccccc2)c1C -8.84%
COCCn1ccc2c(OCC(=O)Nc3cccc(OC)c3)cccc2c1=O -4.83%
COc1cccc(CNC(=O)Cc2ccc(NC(=O)N3CCCCc4ccccc43)cc2)c1OC 3.46%
CCc1nnc(SCc2nc(-c3ccc(OC)c(OC)c3)oc2C)c2cc3sc(C)cc3n12 0.644%
Cc1ccc(/C=C/c2onc(C)c2S(=O)(=O)N2CCC(C(=O)NCc3ccc(C)o3)CC2)cc1 1.18%
Cc1ccc2oc(-c3ccc(C)c(NC(=O)c4ccc(C(C)(C)C)cc4)c3)nc2c1 10%
CC(C(=O)Nc1cc(C(F)(F)F)ccc1Cl)n1nnc2sc3c(c2c1=O)CCCC3 (configuration not stated) -1.15%
Cc1ccccc1C(=O)NCc1nc2cccnc2n1Cc1ccccc1 -4.91%
COc1cccc(CNC(=O)c2nn(-c3ccccc3Cl)nc2CO)c1 -12.5%
COc1ccc(N2CCN(C(=O)c3ccc4c(c3)N(Cc3ccc(F)cc3)C(=O)c3ccccc3S4=O)CC2)cc1 (configuration not stated) -1.64%
COc1ccccc1C(=O)n1nc(-c2ccco2)nc1NCc1ccc(Cl)cc1 -15.2%
CCN1CCN(C(c2ccccc2)c2sc3nc(-c4ccco4)nn3c2O)CC1 (configuration not stated) 2.26%
Cc1ccc(-c2csc(=Nc3ccccc3)n2Cc2ccc3c(c2)OCO3)cc1C -24.1%
COc1ccc(S(=O)(=O)c2c(Nc3ccc(F)cc3)sc(C(=O)c3ccc4c(c3)OCO4)c2N)cc1 -15.1%
CCOc1ccccc1C(=O)Oc1c(Sc2ccccc2)c(C)nn1C(C)(C)C -20%
COCCc1nn2c(=O)cc(COC(=O)COc3ccc(F)cc3)nc2s1 -12%
COc1ccccc1NC(=O)c1c(NCc2ccc(C)o2)sc2c1CCC(C)C2 (configuration not stated) -11.7%
CCCOC(=O)c1c(NC(=O)C2c3ccccc3Oc3ccccc32)sc2c1CCC(C)C2 (configuration not stated) -5%
COc1ccc(-c2cn3c(n2)sc2cc(C(=O)NCCCN4CCCCCC4)ccc23)cc1 -14.7%
CCC(O)c1cc2c(cc1NC(=O)c1cccc(Br)c1)OCCO2 (configuration not stated) -3.35%
CCCSc1ncc(Cl)c(C(=O)N(Cc2ccc(N(C)C)cc2)C2CCS(=O)(=O)C2)n1 (configuration not stated) 3.14%
COc1ccc(NC(=O)Cn2cnc3sc(C)c(S(=O)(=O)N4CCN(C)CC4)c3c2=O)cc1Cl -6.68%
CN1CCN(c2oc(-c3ccc(COc4ccc(Cl)cc4)o3)nc2C#N)CC1 -8.16%
CC(C)C12CN3CC(C(C)C)(CN(C1)C3c1ccc(Cl)cc1)C2=O (configuration not stated) -0.953%
COc1ccc(-c2nc3ccccc3o2)cc1NC(=O)C(C)Oc1ccc(Cl)cc1Cl (configuration not stated) -1.09%
Cc1nc2ccccc2n1CCc1nc2c3ccccc3nc(SCC(=O)Nc3ccc(Br)cc3F)n2n1 2.2%
O=C(CN1C(=O)CCc2cc(S(=O)(=O)N3CCOCC3)ccc21)Nc1cccc(Cl)c1 1.88%
